Test results reported in the RNAGym collection of RNA variant scans (doi:10.7554/elife.90254).
The source gives no read counts; variants with many changes may rest on few reads.

B1: LINE1-full (parent)
chain: UACGUAGGUGGUUUUCCCCUGAUAGUGCUAAGGGGGCCUGGAAGUUUGGACUGGGCAGAGCUCAACACAGCGUGGCAAAGUGGCUGUGGCUAGACUGCCUCUCUGGAUUCCUCGUCACUCAGCAGGGCAUCUCUGAGAGAAAUGCC

Variants of: B1
Assay: self-cleavage, relative activity (ratio to wild type); higher = more cleavage; in vitro, sequencing; the parent is a self-cleaving ribozyme

| Variant | self-cleavage |
| --- | --- |
| A30G U46A U130C | 1.05 |
| G27A A107G U132C G139A | 1.02 |
| A30U U109G G125U | 0.39 |
| U26C U104A A142G | 1.39 |
| U29C A129U A142G | 0.92 |
| A31G A57U U85C | 0 |
| A30G U112C A140G | 0.98 |
| U29C A43G U52C | 1.53 |
| A30U U109C A136G | 1.68 |
| U29C G106A A117G | 1.63 |
| A30G U47A A67G C90U A107G A117U A129U | 0.13 |
| U29C U47A A92G U112C | 0 |
| U29A U39A A94G C113U U119C U132C A136G | 0.16 |
| C28U U52A U96A U104C U108C C116A | 0.1 |
| U29C G55A A79G U81C U85C | 0.14 |
| A30G A42G A50G | 0 |
| A30G A117U A138G A140G | 0.38 |
| A30G A69G A78G U104C | 1.31 |
| U29C A57U A141G | 0.16 |
| G27A U52C G93A U96C | 0.05 |
| U26C U100A U109C A140G | 0.61 |
| G27A U85C U104C A107G C116U | 0.07 |
| U29C A69U U96A | 0.04 |
| U29A A77U A136U | 0.55 |

| Variant | self-cleavage |
| --- | --- |
| G27A C76U A121G | 1.85 |
| U29C U46G U91C A129U | 0.88 |
| U29C G127A A136C | 1.65 |
| U29A A30G U39C U52A U102C | 0.35 |
| C28U U39A A140G U143A | 0.71 |
| U29G A42C A79G C84U U119C | 0.33 |
| U26C U46A A59G U115C | 0.3 |
| A30G U100C A124U A129G | 0 |
| A30U G33U C76U A94G | 0.5 |
| U26G G83A A141G | 1.43 |
| A30G U96A A138G | 0.15 |
| A30U A64U A136U | 0.62 |
| A30G A57U A140U | 0.58 |
| A30G U39C A65G U119A A140G | 1.15 |
| U29G A64U U85C | 0.11 |
| A31G A42G U109A U115A | 0.71 |
| G27A U46C U47C U62C A79G | 0.35 |
| G27A U96C U109A A121G | 0.04 |
| A30G U115A C128G | 1.36 |
| U29C A77G U143G | 2.37 |
| G27A A30G A78G | 1.59 |
| U29C G72A C131U | 1.11 |
| A30G A42U U87C | 0.34 |
| C28G U100C U132A | 1.91 |

| Variant | self-cleavage |
| --- | --- |
| U29C G36U A42G A77U | 1 |
| A30G A59G A140G | 0.33 |
| U26G A69G U96C | 0 |
| C28U A77U A136U A142G | 0.14 |
| A30G A79G U132C | 1.15 |
| U26G A69G G83C | 0.25 |
| U26C U47C C56U U96C | 0.02 |
| A30U U52C A94C U130C A142G | 0 |
| U26C U39A U47A U108C | 1.92 |
| A30G C98G U108C | 0.77 |
| A31G A42G U52A | 2.22 |
| C28A G40A A67G U81A U119A | 0.14 |
| A31C U62C U87A | 0.06 |
| U29C U39C U62C | 0 |
| U29C A50G C113A A129G A141G | 1.17 |
| G27A C56U U132A | 0.18 |
| U29C U119C U132C | 1.7 |
| U29C C38A A65G | 0.06 |
| U26C U85A U109C | 0.17 |
| A30G A65G A117U | 0.28 |
| A31G A50G A138G | 0.26 |
| U29C U112C A124U | 1.74 |
| G27A U73C U143A | 1.46 |
| A30U A64U U73C A79G A117G | 0 |

| Variant | self-cleavage |
| --- | --- |
| G27A A94G C111U A138G A140U A142G | 0 |
| U29A C61A A69C | 0.06 |
| U29A A42G U112A | 1.12 |
| C28U C95U A138G | 0.31 |
| A30G U119C A136U A140U | 0.96 |
| A30G G48U A129C A140G A142G | 1.21 |
| U29C U100C A140G | 2.7 |
| A30G A67U A129U U132C | 0.24 |
| U29A U39C U46A A69U A78G | 0 |
| A31G A50G U73A C98U | 0.11 |
| U29C A94U U132A | 0.41 |
| U29C U46A A57G U109A | 0 |
| A30G A59C U96C | 0 |
| U29A G83C U102C | 0.44 |
| A30G A57G G82A | 1.34 |
| G27A G36C A142G | 1.09 |
| U29C A57G U73C A94G C99U A140G | 0.54 |
| U26C U47C A121G | 0.54 |
| U26C U39A A129U | 0.96 |
| U26C U39G A78G U112C | 1.15 |
| U29C G54A A59G | 0.32 |
| G27A U46A G54A U91C U108C U119C C128U | 0.23 |
| U26C U46A A50G U52C U102C | 0 |
| A31G A57U U112C U119C | 0 |

| Variant | self-cleavage |
| --- | --- |
| G27A U112C A121G | 0.42 |
| A30U A64G U115C | 0.36 |
| U26G C120A U132C | 1.82 |
| U26C U29C U62C U91A A142G | 0.26 |
| U26C U81A U85C U104C U143C | 0 |
| U29C A64C A78G A141G | 0.33 |
| U29C A31G A43G C113U | 0.56 |
| A30G A59G U115A A129C | 0.46 |
| U29C A65G U104A A142G | 0.14 |
| U26G A140G A141G | 1.2 |
| C28A U45C C51U G55A A59U A94U | 0.01 |
| A30G A107G A124U A138G U143C | 2.04 |
| U26C U62C U73C U119A G122A | 0 |
| G27A A50U A57U U85A | 0.04 |
| A30G G48U A140U | 0.62 |
| U29C A65G U102A U130C | 0.79 |
| A30U U39G U132C | 0.92 |
| A30U A59U U112C | 0.68 |
| A30U A79U U108C A141G | 0.84 |
| U26C U39A A78G A140G U143C | 0.55 |
| A30U U73C U119C | 0.88 |
| A30U A79C U81C U87C | 0 |
| A30U U45C C71U | 0.98 |
| U29C A43G A124U | 1.9 |

| Variant | self-cleavage |
| --- | --- |
| U26C U46C U85C | 0.21 |
| A30U U73G U104A | 0.84 |
| A30U A31G C38G | 0.9 |
| A30G U52C A77U U91C | 0.84 |
| A30G A42G A117G | 1.02 |
| A30G U104C A121U | 2.69 |
| U29A A79G U87C | 0.57 |
| A30G A59G A94U | 0 |
| U29C C68A A117G A138U | 0.1 |
| U26C G82A G97A | 0.06 |
| U29C A121G C123U A141U | 1.76 |
| G27A G97A A129G | 0.08 |
| G27A A42G U143A | 1 |
| A30U A117G A121U | 1.28 |
| A31C G49A U62A A67G | 0.11 |
| A30G C90U G122A | 0.08 |
| A30U U73C A77G C84U U96C | 0.22 |
| A30U U96A U119C | 0.03 |
| U29A A77G U85A | 0.35 |
| C28U A59U A78G A92U | 0 |
| U26C U52C U115C A121U | 1.84 |
| U29C A42U U134C U143A | 1.3 |
| A30G A92G U104C A141G | 0 |
| C28U A57G A59G U62G U119C A142G | 0 |

| Variant | self-cleavage |
| --- | --- |
| A30G A64G U132C | 0.77 |
| U29C U52C U96C | 0 |
| U29C U91A A121U | 0.95 |
| G27U U112C A124U | 0.62 |
| C28U U62C A67U U81A U85A | 0.03 |
| A30G G33A A42G | 0.8 |
| U29A A140G A142G | 1.22 |
| U29A A65G U87A C103U U104A | 0.05 |
| U26C U62C A79U | 0 |
| U29A C63A U85A C98G | 0.03 |
| A31G A59G U112C | 0.77 |
| U26G A79G U96A | 0.14 |
| A31C A67G U96A | 0.14 |
| U29C A31U G88A A107G U112A | 0.13 |
| A30G U45C U47A U52A U87A | 0.18 |
| U29C U39C U73C A124U U143A | 0 |
| U29A G35U U112C A121G U134A | 1.02 |
| C28A U52A A69G U115C G127C | 1.02 |
| A30U A59U A141G | 1 |
| U29C U47A A124U | 1.89 |
| G27A C37U U87C | 0.06 |
| G27A U39C A79G A138G | 0.42 |
| U26C U46C U62C | 0 |
